# Source: PMC4336329 (PLoS ONE, 2015)
# The campaign covered roughly 310,000 compounds. About 2,200 (0.71%) showed an effect of 50% or more. The effect is printed as a negative number. This is one part of the list.
# Target: human ether-à-go-go-related gene (hERG) potassium channel (human, UniProt Q12809)
# Experiment: primary screen, population patch clamp on CHO cells stably expressing hERG
# human ether-à-go-go-related gene (hERG) potassium channel, sequence (Q12809 whole entry, looked up): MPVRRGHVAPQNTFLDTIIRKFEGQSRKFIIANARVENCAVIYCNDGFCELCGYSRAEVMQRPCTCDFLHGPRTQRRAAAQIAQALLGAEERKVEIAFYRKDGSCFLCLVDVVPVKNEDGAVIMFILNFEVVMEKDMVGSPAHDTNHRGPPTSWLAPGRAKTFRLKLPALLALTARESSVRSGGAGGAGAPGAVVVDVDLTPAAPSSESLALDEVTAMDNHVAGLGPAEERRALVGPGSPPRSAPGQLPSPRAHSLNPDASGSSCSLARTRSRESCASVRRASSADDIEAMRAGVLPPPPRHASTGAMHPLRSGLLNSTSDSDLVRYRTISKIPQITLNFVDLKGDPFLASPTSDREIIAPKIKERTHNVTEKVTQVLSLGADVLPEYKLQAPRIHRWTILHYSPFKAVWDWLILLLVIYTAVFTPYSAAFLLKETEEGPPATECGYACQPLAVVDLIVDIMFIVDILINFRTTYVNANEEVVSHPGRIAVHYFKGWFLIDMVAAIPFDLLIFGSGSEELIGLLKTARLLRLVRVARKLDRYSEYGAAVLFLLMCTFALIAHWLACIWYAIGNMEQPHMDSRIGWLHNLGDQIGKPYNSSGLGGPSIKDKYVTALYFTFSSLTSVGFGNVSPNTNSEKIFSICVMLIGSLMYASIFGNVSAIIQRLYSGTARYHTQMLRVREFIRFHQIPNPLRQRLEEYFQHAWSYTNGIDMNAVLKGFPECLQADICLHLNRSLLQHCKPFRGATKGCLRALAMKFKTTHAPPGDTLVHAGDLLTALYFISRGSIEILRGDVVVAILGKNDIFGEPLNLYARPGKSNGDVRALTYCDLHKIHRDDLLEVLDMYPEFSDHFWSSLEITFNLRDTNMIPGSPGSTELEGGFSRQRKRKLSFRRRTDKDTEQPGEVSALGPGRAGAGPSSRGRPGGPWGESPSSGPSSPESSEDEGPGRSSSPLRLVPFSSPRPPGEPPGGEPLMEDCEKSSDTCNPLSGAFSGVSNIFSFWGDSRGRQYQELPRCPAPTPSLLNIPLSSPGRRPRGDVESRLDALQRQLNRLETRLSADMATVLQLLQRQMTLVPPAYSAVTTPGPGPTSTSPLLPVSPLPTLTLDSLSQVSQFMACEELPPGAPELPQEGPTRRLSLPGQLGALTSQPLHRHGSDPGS
row,SMILES,"hERG current change (%, negative = inhibition) at 1uM"
1,O=C(CNS(=O)(=O)c1ccccc1)OCC(=O)c1ccc(Br)cc1,17.4%
2,COCCn1c(SCC#N)nnc1-c1ccccc1O,-0.569%
3,CCOC(=O)c1cnc2ccccc2c1Nc1ccc(C(=O)O)cc1.Cl,13.4%
4,Cc1nnc(SCC(=O)N2c3ccccc3C(C)(c3ccccc3)CC2(C)C)s1 (stereo not shown),-7.23%
5,O=C(Nc1ccccc1N1CCOCC1)c1cccc(F)c1,5.51%
6,Cc1ccc(OCc2ccc(C(=O)NCC3CCCO3)cc2)cc1 (stereo not shown),24.9%
7,COC(=O)Cn1ncc2c(C)n(Cc3ccccc3)c(C)c2c1=O,14.5%
8,C=C1CCN(c2ccc(C(=O)NCc3ccccc3)cc2[N+](=O)[O-])CC1,9.22%
9,Cc1ccc(S(=O)(=O)c2nc(-c3ccccc3Cl)oc2N(C)C)cc1,6.81%
10,Cn1cc(C(=O)c2ccc(Cl)cc2Cl)cc1C(=O)N/N=C(\N)COc1cccc(C(F)(F)F)c1,17%
11,Cc1cccc(C)c1N(CC(=O)N1CCOCC1)S(C)(=O)=O,14.2%
12,O=C(NC1CCCCC1)C(c1cccnc1)N(C(=O)c1ccc(Cl)nc1)C1CCCCC1 (stereo not shown),8.54%
13,Cc1cc(C)c(O)c(-c2n[nH]c3c2C(c2cccc(O)c2)N(Cc2ccco2)C3=O)c1 (stereo not shown),10.2%
14,CN1OC2C(=O)N(c3ccccc3)C(=O)C2C1c1ccc(F)cc1 (stereo not shown),-2.43%
15,O=C(NCc1ccccc1Cl)c1ccc(CS(=O)(=O)c2ccccc2)o1,9.05%
16,COCCNC(=O)Nc1ccc2c(c1)N(C)C(=O)CS2,16.1%
17,CS(=O)(=O)N1CCN(c2ccc(NC(=S)NC(=O)c3ccc4c(c3)OCO4)cc2)CC1,17.7%
18,Cc1cccc(N2CCN(C(=O)CCNS(=O)(=O)c3ccc4c(c3)oc(=O)n4C)CC2C)c1 (stereo not shown),8.95%
19,CC(NC(=O)CCN1C(=O)c2ccccc2C1=O)c1ccc2c(c1)CCCC2 (stereo not shown),16.1%
20,Cc1c(N=Cc2c(O)n(C)c(=O)[nH]c2=O)c(=O)n(-c2ccccc2)n1C,11.7%
21,O=c1[nH]c(=O)n(Cc2ccc(Oc3ccccc3)cc2)cc1Br,12.5%
22,O=C1ON=C(c2ccc(Cl)cc2)/C1=C/c1ccc(O)cc1,19.3%

row,SMILES,"hERG current change (%, negative = inhibition) at 1uM"
1,O=C(CN1CCCCC1)Nc1cccc(Oc2ccccc2)c1,-4.49%
2,CC(C)[C@H](Nc1ccc(S(=O)(=O)N2CCOCC2)cc1[N+](=O)[O-])C(=O)OCC(N)=O,7.12%
3,Cc1cc(-c2ccc([N+](=O)[O-])cc2)nc2ccccc12.Cl,13.9%
4,c1ccc2c(Cn3nnc4ccccc43)cccc2c1,13.4%
5,CCCC(=O)N1CCCC(C(=O)c2ccc(OC)c(OC)c2)C1 (stereo not shown),11.9%
6,COC(=O)C1=C(C)N(Cc2ccccc2)C(=NCCCCO)N[C@H]1CCc1ccccc1,-2.94%
7,Cc1onc(-c2ccccc2)c1C(=O)Nc1ccc(N2CCOCC2)cc1,12.5%
8,CC/C(=N/NC(=O)c1ccc(Br)o1)c1ccc(Cl)cc1,13.6%
9,COc1ccc(N2CC(C(=O)NC3CCCCC3)CC2=O)cc1 (stereo not shown),9.1%
10,CCC(CO)NC1=CC(=O)CCC1 (stereo not shown),8.31%
11,Cc1cccc(C(=O)NC2CCN(CC(=O)NCc3cccs3)CC2)c1,2.82%
12,COc1ccc(CNC(=O)CN(Cc2ccco2)C(=O)CCC(=O)Nc2ccccn2)cc1,-11.5%
13,CCn1cc(C(=O)O)c(=O)c2cc(F)c(N/N=C/c3ccccc3)cc21,-4.52%
14,O=C(O)C(=O)O.c1ccc(Cc2ccc(OCCCNC3CCCC3)cc2)cc1,-3.05%
15,CC(C)N=C(Nc1ccc(Cl)cc1)c1cccnc1,9.22%
16,Cc1ccc(OCc2cc(C(=O)NCCn3cccn3)no2)cc1C,20.8%
17,COc1ccc(C(=O)NNC(=O)CSc2nc3c(c(=O)n(C)c(=O)n3C)n2C)cc1,6.17%
18,O=C(C1CCCCC1)N1CCC(CO)(Cc2ccccc2Cl)CC1,-3.15%
19,O=C(Nc1ccc(S(=O)(=O)N2CCCCCC2)cc1)c1ccco1,-3.51%
20,COc1cc(NC(=O)c2cccc([N+](=O)[O-])c2)ccc1NC(=O)c1ccco1,0.199%
21,NS(=O)(=O)c1ccc(CCNC(=O)CNS(=O)(=O)c2cccc(Br)c2)cc1,18.5%
22,CCOc1ccc(N(CC(=O)NC2CCCCC2)C(=O)CCC(=O)Nc2ccccn2)cc1,-14.6%

row,SMILES,"hERG current change (%, negative = inhibition) at 1uM"
1,Cc1cc(N2CCCCC2)nc(N2CCOCC2)n1,-2.4%
2,COC(=O)[C@H](CC(C)C)NCc1cccc(CN[C@@H](CC(C)C)C(=O)OC)c1,5.69%
3,COc1ccc(Br)cc1CN1CCN(Cc2c[nH]c3ccccc23)CC1.O=C(O)C(=O)O,4.08%
4,COc1ccccc1OCCC(=O)OCC(=O)Nc1ccc(Br)cc1,3.89%
5,COc1ccc(CCNC(=O)CCCCCNc2nc(=S)[nH]c3ccccc23)cc1OC,4.57%
6,Nc1nc2ccc(C(=O)Nc3ccccc3)cc2s1,16%
7,Cc1cccc(OCc2nnc(SCC(=O)O)n2-c2ccccc2)c1,13%
8,CCC(=O)N1c2ccccc2NC2=C(C(=O)CCC2)C1c1cccnc1 (stereo not shown),12.9%
9,CC(=O)O[C@]1(C(C)=O)CCC2C3CCC4=C/C(=N/OCC(=O)O)CC[C@]4(C)C3CC[C@@]21C (stereo partly shown),12.2%
10,CC(Oc1ccc(Cl)cc1)C(=O)N(C)CC(=O)Nc1ccc(N2CCOCC2)cc1 (stereo not shown),15.4%
11,COc1ccccc1-n1cnnc1SCC(=O)NCC1CCCO1 (stereo not shown),15.1%
12,O=C1CSC(=Nc2ccc(O)cc2)N1,14.8%
13,CCCSc1nnc(Cn2c(=O)sc3ccccc32)n1C,1.21%
14,CCCN1CCC(NC(=O)Nc2ccccc2C(=O)OC)CC1,-2.51%
15,CCc1cc(=O)oc2cc(C)c(CN3CCCCC3)c(O)c12,6.09%
16,Cc1cccc2c1-c1sc(C(=O)NCCCN3CCC(C)CC3)cc1CO2,-5.27%
17,O=C(CC(SCCO)c1ccc(F)cc1)c1ccco1 (stereo not shown),10.1%
18,CC12CCC3C(CCC4C/C(=N/O)CCC43C)C1CCC2O (stereo not shown),-4.25%
19,COc1c(C)cc(Br)cc1C(=O)NCc1cccnc1,-2.49%
20,Cc1ccc(NC(=O)N2CCC(NC(=O)c3cccc(C)c3)CC2)cc1,1.63%
21,COc1ccccc1C(=O)NC(=S)Nc1cccc2cc(O)ccc12,16.6%
22,CC(=O)Cc1nsc(NC(=O)c2ccc(COc3ccccc3)o2)n1,-0.614%

row,SMILES,"hERG current change (%, negative = inhibition) at 1uM"
1,O=C(CCn1c(=O)c2ccccc2n(CC(=O)NCCC2=CCCCC2)c1=O)NCc1ccco1,9.69%
2,CN(C)S(=O)(=O)c1cccc(N=c2scc(-c3ccc4c(c3)NC(=O)CO4)n2CC2CCCO2)c1 (stereo not shown),-5.6%
3,O=C(c1cnc2ccc3ccccc3c2c1)c1cc(F)ccc1O,14.8%
4,O=C(NCCCn1ccnc1)c1ccc(NS(=O)(=O)c2cccc([N+](=O)[O-])c2)cc1,6.9%
5,CC(C(=O)NC(=O)NC1CCCCC1)N1CCN(c2ccc(O)cc2)CC1 (stereo not shown),-7.14%
6,O=C(COC(=O)c1ccc2ccccc2n1)Nc1ncc(C(F)(F)F)cc1Cl,7.36%
7,Cc1cc(C)c2c(N=NN3CCCCC3)[nH]nc2n1,11.2%
8,Cc1nnc(NC(=O)CSc2nc3c(c(=O)n2C)SC(C)C3)s1 (stereo not shown),12.3%
9,COc1ccc(C)cc1NC(=O)NCc1ccccn1,9.05%
10,CCc1ccccc1NS(=O)(=O)c1ccc(SC)cc1,17.6%
11,CCOc1ccc(CCNC(=O)COC(=O)C2CCN(S(=O)(=O)c3ccc(C)c(C)c3)CC2)cc1OCC,10.6%
12,Cc1cc(NC(=O)Cn2c(C)nc3ccccc3c2=O)ccc1Br,4.29%
13,CCC(=O)Nc1ccc2c(c1)nc(CCNC(=O)c1ccco1)n2C,14.7%
14,O=C(NCCc1ccc(C(F)(F)F)cc1)C1CCC(=O)N(C2CC2)C1 (stereo not shown),-13%
15,O=C(O)CCC(=O)N1N=C(c2cccs2)CC1c1cccc([N+](=O)[O-])c1 (stereo not shown),17.8%
16,CCC(=O)Nc1nc2ccc(NC(C)=O)cc2s1,13.8%
17,COc1ccc(NC(=O)C2CCC(C(C)(C)C)CC2)cc1S(=O)(=O)N1CCOCC1 (stereo not shown),7.23%
18,CCCn1c(SCC(=O)NC23CC4CC(CC(C4)C2)C3)n[nH]c1=O,7.11%
19,O=C(CCC(=O)N/N=C/c1ccc(Br)s1)NCc1ccccc1,9.94%
20,O=C1CC(c2cc([N+](=O)[O-])ccc2Cl)c2c(ccc3ccccc23)N1 (stereo not shown),-32.9%
21,Cc1cc(NC(=O)c2cccc(F)c2)no1,1.59%
22,O=C(O)C1CCCN(S(=O)(=O)c2cccc3cccnc23)C1 (stereo not shown),11%
